The list shows a part of the results. Each Rep nickase domain was tested in vitro on the same pool of single strands (3 µM enzyme, 1 h, 37 °C); shown is the middle of each 90-letter strand. A value is the log2 ratio of uncut reads to the pool without enzyme; the lower, the more was cut; hits are not called. Counts are relative to all reads, so uncut sequences can rise above 0 when many others are cut.
Each sequence was assayed on T1, Rep nickase domain of tomato golden mosaic virus (assay: uncleaved DNA left, log2 of reads against the no-enzyme library (log2 ratio); higher = less cleavage (more negative = more Rep cleavage of the k-mer); sequences stand for … in CTCGTCCG…ACCGGAGA).
T1 sequence (residues 1-124 of Rep, tag left off): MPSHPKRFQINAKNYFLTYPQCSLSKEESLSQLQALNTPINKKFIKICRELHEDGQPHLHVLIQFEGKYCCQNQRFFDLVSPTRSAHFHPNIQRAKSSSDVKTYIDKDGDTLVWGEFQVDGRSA
Method: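 A pool of 90-nt single-stranded DNAs with seven random bases just before the constant AC of the nick site (name = the seven bases) was cut by 3 µM recombinant His6-SUMO-tagged Rep nickase domain (300 nM DNA, 50 mM HEPES pH 8.0, 50 mM NaCl, 1 mM MnCl2, 1 h, 37 °C, three replicates). Uncut DNA was amplified and sequenced.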
For GGCGCTA, the “uncleaved DNA left (log2)” value was -0.0273.
CATAGTT was tested, and the “uncleaved DNA left (log2)” value was -0.0477.
With TGCAGCA the “uncleaved DNA left (log2)” value was -0.0434.
With TTCGCAG the “uncleaved DNA left (log2)” value was -0.0625.
For TCCGACT, the “uncleaved DNA left (log2)” value was -0.0409.
With TATGACC the “uncleaved DNA left (log2)” value was 0.0407.
For ATCCTGC, the “uncleaved DNA left (log2)” value was -0.174.
With GTGATTG the “uncleaved DNA left (log2)” value was 0.0578.
For AATACCA, the “uncleaved DNA left (log2)” value was -0.0842.
For GTCCCCA, the “uncleaved DNA left (log2)” value was 0.0303.
TAGGATG was tested, and the “uncleaved DNA left (log2)” value was 0.12.
TGTGCAT was tested, and the “uncleaved DNA left (log2)” value was -0.147.
For ACCGTAC, the “uncleaved DNA left (log2)” value was -0.202.
For GACCACG, the “uncleaved DNA left (log2)” value was -0.0448.
AAGATCT was tested, and the “uncleaved DNA left (log2)” value was -0.0445.
AGTTATG was tested, and the “uncleaved DNA left (log2)” value was 0.0277.
For TCTGCGC, the “uncleaved DNA left (log2)” value was -0.267.
TAGGACC was tested, and the “uncleaved DNA left (log2)” value was 0.0511.
With GGGAAAT the “uncleaved DNA left (log2)” value was 0.0462.
In the case of GACCATA, the “uncleaved DNA left (log2)” value is reported as -0.0641.
For ATTGTAG, the “uncleaved DNA left (log2)” value was -0.0287.
GTGGGGG was tested, and the “uncleaved DNA left (log2)” value was 0.103.
With TGCAGTC the “uncleaved DNA left (log2)” value was -0.0717.
With GCCACAC the “uncleaved DNA left (log2)” value was -0.0138.
With GAACACG the “uncleaved DNA left (log2)” value was -0.0548.
GGCAAGA was tested, and the “uncleaved DNA left (log2)” value was 0.0408.
For CGGGAAT, the “uncleaved DNA left (log2)” value was 0.0204.
For TCGCACC, the “uncleaved DNA left (log2)” value was -0.0707.
CTAGGCG was tested, and the “uncleaved DNA left (log2)” value was -0.137.
For CTTTAGC, the “uncleaved DNA left (log2)” value was 0.118.
TCAGACA was tested, and the “uncleaved DNA left (log2)” value was -0.108.
In the case of AGCGATG, the “uncleaved DNA left (log2)” value is reported as -0.00766.
With ACTCTCG the “uncleaved DNA left (log2)” value was 0.0256.
In the case of CATGGAT, the “uncleaved DNA left (log2)” value is reported as -0.00267.
CAGGTAC was tested, and the “uncleaved DNA left (log2)” value was 0.134.
GCAGGTA was tested, and the “uncleaved DNA left (log2)” value was 0.0389.
CTTGATT was tested, and the “uncleaved DNA left (log2)” value was -0.124.
With TACCGGG the “uncleaved DNA left (log2)” value was -0.0258.
In the case of AACCCAG, the “uncleaved DNA left (log2)” value is reported as 0.141.
TGCATGA was tested, and the “uncleaved DNA left (log2)” value was 0.00487.
